Source: PubChem BioAssay AID2060897 (Molecular Pharmacology Branch, DTP, NCI, 2025)
Some entries of the source have several records that differ or are many. The list is limited to them. The source may hold further records. Values given together are repeats (runs, samples, wells, individuals or studies). Additions like (4×) give the number of equal values in this list. Marks such as [2022-09] give the month of the run.

System: 966289-007-R4-J1-PDC complex spheroid viability
Test: Anticancer human tumor 966289-007-R4-J1-PDC patient-derived pancreatic adenocarcinoma cell line growth inhibition [RAS]
Details: for viability, T/C: stronger effect = lower value
From the text: RAS pathway inhibitors in Combinations in Complex Spheroids
A high-throughput screen of multi-cell type tumor spheroids was designed to identify active combinations of RAS pathway inhibitors and targeted small molecules. Complex spheroids include a stromal component modeled by human endothelial cells (HUVEC) and fibroblasts modeled by human mesenchymal stem cells (MSCs). The concentration ranges selected for each drug and investigational agent were based upon clinically achievable concentrations if the clinical Cmax of the agent was known.
Compounds. The drugs and investigational agents: abemaciclib (NSC768073), cobimetinib (NSC768068), divarasib (GDC6063, NSC841802), docetaxel (NSC628503), GDC-1971 (RLY-1971, NSC841576), gemcitabine (NSC613327), inavolisib (NSC800729), ipatasertib (NSC767898), KB-0742 (NSC834161), MRTX-1133 (NSC836407), osimertinib (NSC779217), RMC-4630 (NSC839698), RMC-6236 (NSC851965), RMC-6291 (NSC852671), Ro-3306 (NSC812927), sapanisertib (NSC764658), SN-38 (NSC673596), staurosporine (NSC755774), SY5609 (NSC837396), and tovorafenib (DAY101, NSC766906), were obtained from the National Cancer Institute (NCI) Developmental Therapeutics Program Chemical Repository. The FDA-approved anticancer drug set is available from the NCI Developmental Therapeutics Program. […] The stock solutions were prepared in dimethyl sulfoxide (DMSO, Sigma-Aldrich, St. Louis, MO, cat. D2650) at 800-fold the tested concentration and stored at -70 degrees C prior to their use. All drugs and investigational agents were tested over a range starting from a high concentration at or near the clinical Cmax and decreasing in half-log increments. If the clinical Cmax for an agent had not been determined, the highest concentration tested was 10 microM.
Cell Culture. All cells were maintained in an incubator at 37 degrees C and 5% CO2 with 95% humidity. The PDC lines were cultured according to standard operating procedures established by the NCI PDMR. All PDCs were thawed and cultured in Matrigel-coated flasks prepared with a working solution of 1X Ham's F-12 nutrient mix, without supplementation (Invitrogen, Waltham, MA, cat. 11765054), 100 U/mL penicillin-streptomycin (Invitrogen, cat. 15140122), and 2.5% Matrigel (Corning Inc., Corning, NY, cat. 354248) for the first three passages. The 362531-283-R-J2-PDC and 782815-120-R-J1-PDC lines were cultured in 6C/Colon 1B media, which includes advanced DMEM/F-12 (Thermo Fisher Scientific, cat. 12634028), 10 mM HEPES (Thermo Fisher Scientific, cat. 15630080), 1X GlutaMAX supplement (Thermo Fisher Scientific, cat. 35050061), 0.1 mg/mL primocin (InvivoGen, San Diego, CA, cat. ant-pm-2), 10% defined fetal bovine serum, heat inactivated (HyClone Laboratories Inc., Logan, UT, cat. SH30070.03HI), 50% L-WRN conditioned media (ATCC, cat. CRL-3276), 1.25 mM N-Acetyl-L-cysteine (Sigma-Aldrich, cat. A9165), 10 mM nicotinamide (Sigma-Aldrich, cat. N0636), 1X B-27 supplement (Thermo Fisher Scientific, cat. 17504044), 1X N-2 supplement (Thermo Fisher Scientific, cat. 17502048), 50 ng/mL human EGF (Thermo Fisher Scientific, cat. PHG0311), and 10 microM Y-27632 dihydrochloride (Tocris Bioscience, cat. 1254). The K12877-001-R-J1-PDC line was cultured in 6I media, which includes all 6C/Colon 1B media plus 10 ng/mL human FGF-10 (PeproTech, cat. 100-26), 1 ng/mL human FGF-2 (PeproTech, cat. 100-18B), 1 µM prostaglandin E2 (Tocris Bioscience, cat. 2296), […] hydrocortisone (Sigma-Aldrich, cat. H4001), and […] bovine insulin (Sigma-Aldrich, cat. I6634). The K86415-001-R-J1-PDC line was cultured in 6D media, which includes all 6C/Colon 1B media components minus the L-WRN conditioned media. The 485176-168-R4-J1-PDC was cultured in PANC media, which includes all 6C/Colon 1B media plus 100 ng/mL human FGF-10 (PeproTech, cat. 100-26), 500 nM SB-431542 (Selleckchem, cat. S1067), and 10 nM gastrin (Tocris Bioscience, cat. 3006). […]
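Note: spheroids exposed to agents for one week before readout.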
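Throughout, for viability, T/C: percent viability relative to DMSO vehicle control wells as 100%.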

CC(C)NCC(C(=O)N1CCN(c2ncnc3c2C(C)CC3O)CC1)c1ccc(Cl)cc1 (centres undefined)
viability, T/C (compound alone 0.1 µM): 80.7%, 85% [2024-05] and 84.1%, 111% [2024-06]

CCC(CC)c1cc(NC2CCC(N)C2)n2nccc2n1 (centres undefined)
viability, T/C (compound alone 0.0316 µM): 104%, 75.6% [2024-05] and 100%, 96.7% [2024-06]
viability, T/C (compound alone 1 µM): 74.2%, 83.7% [2024-05] and 113%, 132% [2024-06]

CC1(O)CCCC1n1c(=O)c(C(F)F)cc2cnc(NC3CCN(S(C)(=O)=O)CC3)nc21 (centres undefined)
viability, T/C (compound alone 0.0316 µM): 110%, 92.4% [2024-05] and 121%, 115% [2024-06]

CCN1CCN(Cc2ccc(Nc3ncc(F)c(-c4cc(F)c5nc(C)n(C(C)C)c5c4)n3)nc2)CC1
viability, T/C (compound alone 0.0316 µM): 93.8%, 133% [2024-05] and 126%, 117% [2024-06]
viability, T/C (compound alone 0.1 µM): 87.2%, 91.5% [2024-05] and 118%, 96% [2024-06]

NC1c2ccccc2OC12CCN(c1cnc3c(N4CCCc5ncccc54)n[nH]c3n1)CC2 (centres undefined)
viability, T/C (compound alone 0.0316 µM): 86.2%, 98.1% [2024-05] and 101%, 113% [2024-06]
viability, T/C (compound alone 3.16 µM): 78.5%, 95.2% [2024-05] and 117%, 102% [2024-06]

C#Cc1c(F)ccc2cc(O)cc(-c3ncc4c(N5CC6CCC(C5)N6)nc(OCC56CCCN5CC(F)C6)nc4c3F)c12 (centres undefined)
viability, T/C (compound alone 0.0316 µM): 97.6, 122, 93.3, 108, 105, 104 (2×), 111%
viability, T/C (compound alone 0.1 µM): 93.2, 121, 113, 106, 111, 102, 101, 110%
viability, T/C (compound alone 1 µM): 104 (2×), 114, 92.7, 121, 106, 105, 120%
viability, T/C (compound alone 10 µM): 92.9, 85.9, 89.2, 106, 78.2, 87.6, 84.3, 93.7%

O=C(c1ccc(F)c(F)c1Nc1ccc(I)cc1F)N1CC(O)([C@@H]2CCCCN2)C1
IC50 (compound alone): > 1 µM, 695 nM [2024-05] and 499 nM, 573 nM [2024-06]
viability, T/C (compound alone 1 µM): 63%, 41.3% [2024-05] and 32.7%, 35.6% [2024-06]

CCc1c2c(nc3ccc(O)cc13)-c1cc3c(c(=O)n1C2)COC(=O)[C@]3(O)CC
viability, T/C (compound alone 0.000949 µM): 115%, 90.8% [2024-05] and 85.6%, 75.5% [2024-06]

C=CC(=O)Nc1cc(Nc2nccc(-c3cn(C)c4ccccc34)n2)c(OC)cc1N(C)CCN(C)C
viability, T/C (compound alone 0.00316 µM): 95.2%, 80% [2024-05] and 105%, 108% [2024-06]
viability, T/C (compound alone 0.01 µM): 97.9%, 74.7% [2024-05] and 93.5%, 101% [2024-06]
viability, T/C (compound alone 0.1 µM): 67.8%, 91.3% [2024-05] and 102%, 95.2% [2024-06]
viability, T/C (compound alone 0.316 µM): 61.2%, 72.1% [2024-05] and 94.3%, 104% [2024-06]
viability, T/C (compound alone 1 µM): 60.8%, 69.4% [2024-05] and 85.9%, 80.6% [2024-06]

CC(Nc1ccc2c(c1)OCCn1cc(N3C(=O)OCC3C(F)F)nc1-2)C(N)=O (centres undefined)
viability, T/C (compound alone 0.0316 µM): 117%, 132% [2024-05] and 96.7%, 102% [2024-06]
viability, T/C (compound alone 0.1 µM): 87.1%, 107% [2024-05] and 114%, 105% [2024-06]
viability, T/C (compound alone 1 µM): 82.3%, 95.8% [2024-05] and 110%, 111% [2024-06]
viability, T/C (compound alone 3.16 µM): 87.9%, 98.5% [2024-05] and 107%, 113% [2024-06]
